Measured values taken from PubChem BioAssay AID1508623 (National Center for Advancing Translational Sciences (NCATS), 2021).
The campaign covered roughly 48,000 compounds. About 450 (0.94%) were called active. Inconclusive results (about 19%) are left out. Calls follow the shape of the dose curve; as a rule, active = well fitted inhibition curve with a large enough effect; inconclusive = small, poorly fitted or top-dose-only effect; inactive = no such curve, though single readings can be large or run the other way. The list shows a part of the results.

Assay: Primary qHTS for Identification of Small Molecule Inhibitors of Huntingtin Promoter Activity; also: nearly all actives have a fitted effect of over 50% in size
Details: HEK293 HTT promoter firefly luciferase reporter (activity 0% = vehicle and -100% = no light), 24 h; series mostly up to 57.5 µM; activity change, negative = inhibition: at the top concentration
Procedure, shortened: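 HEK293 cells carrying firefly luciferase reporters were seeded at 2,500 per well in Opti-MEM and cultured for 24 h. They were then treated with compounds at up to 57.5 uM final for 24 h at 37 degrees C before Dual-Glo luminescence readout.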

Activity change, negative = inhibition, inactive:
CCCCN(Cc1ccccc1)S(=O)(=O)c1cc(Br)cc2c1N(C(=O)C1CC1)CC2 -24.9%
CCCNC(=O)CCn1nc(-c2ccccc2)c2ccccc2c1=O -13.9% [at 11.5 µM]
O=C(CSc1nnc(CNC(=O)c2ccccc2F)n1-c1ccccc1)Nc1ccccc1F -15.5%
CC(=O)C1=C(c2ccc(Cl)c(Cl)c2)N(C(C)=O)n2c(nnc2C2CCCCC2)S1 -5.93%
O=C(CCc1nnc2n(Cc3ccccc3Cl)c(=O)c3ccccc3n12)Nc1ccc(F)cc1 -12.2%
CCC(Cn1nnc2ccccc2c1=O)NC(=O)Nc1ccc(C)cc1 (stereo not given) 5.03%
Cc1ccc(S(=O)(=O)c2cnc(SC(C)C(=O)Nc3ccccc3)[nH]c2=O)cc1 (stereo not given) -5.88%
CCOc1ccc(OCC)c(NC(=O)c2cc(CN3CCOCC3)on2)c1 13.2%
Cc1ccc(NC(=O)CCNS(=O)(=O)c2ccc(Br)s2)cc1 -10.7%
CCOC(=O)C1CCCN(C(=O)c2cccc(NC(=O)c3nsc4ccccc34)c2)C1 (stereo not given) 52.3%
O=C(NCCS(=O)(=O)N1CCN(c2ccccc2F)CC1)C(c1ccccc1)c1ccccc1 -25.2%
CNCCCC1c2ccccc2C=Cc2ccccc21 -12.7%
Cc1ccc(-c2nc(NC(=O)CSc3ncnc4sc5c(c34)CCC(C)C5)ns2)cc1 (stereo not given) 1.29%
COc1ccc(-n2cc(C(=O)OCc3ccc(F)c(F)c3)c3ccccc3c2=O)cc1 -15.2%
CCc1ccc(NS(=O)(=O)c2ccc3[nH]cc(C(=O)NCCc4cccc(C)c4)c(=O)c3c2)cc1 0.525%
COc1ccc(C2C(=O)N(C3CCCCC3)CC(=O)N2CCC2=CCCCC2)cc1 (stereo not given) -19.3%
O=C(NC1(C(F)(F)F)C(=O)Nc2c1c(=O)[nH]c(=O)n2-c1ccc(F)cc1)c1ccccc1 (stereo not given) -9.56%
CCOc1ccc(-n2c(=O)c3sc4ccccc4c3n(Cc3cccc(C)c3)c2=O)cc1 -20.3%
Cc1ccc(OC(=O)c2cc(-c3ccc(Cl)cc3)on2)c(C)c1 -5.87%
Cc1cccc(N2CCN(C(=O)CCc3c(C)nc4c(c3C)c(=O)n(C)c(=O)n4C)CC2)c1C -8.47%
CC1CCC(NC(=O)c2ccc3c(c2)N(Cc2ccccc2F)C(=O)c2ccccc2S3=O)CC1 (stereo not given) 3.76%
CCOc1ccc(CCNC(=O)Cn2ncn3c(cc4sc(C)cc43)c2=O)cc1OCC -6.72%
O=C(NCc1ccccc1)C(=O)NCC(c1ccc2c(c1)OCO2)N1CCOCC1 (stereo not given) 11.4%
COc1ccc2c(c1)sc1ncc(C(=O)NCc3ccc(Cl)cc3)c(=O)n12 -3.81%
CCN1CCN(c2oc(/C=C/c3ccc(OC)c(OC)c3)nc2C#N)CC1 -12.2%
Clc1ccc(-c2cn3ncsc3n2)cc1 11%
COc1cccc(CNC(=O)C(NS(=O)(=O)c2cccs2)C(C)C)c1 (stereo not given) -12.1%
O=c1c2cccnc2n(Cc2ccccc2F)c(=O)n1Cc1ccc(F)cc1 -23.8%
CCCCN1C(=O)c2[nH]nc(-c3ccccc3O)c2C1c1cc(Br)c(O)c(OC)c1 (stereo not given) -15.5%
C[C@]12CCC(=O)C=C1CC[C@@H]1[C@@H]2[C@@H](O)C[C@@]2(C)[C@H]1CC[C@]2(O)C(=O)CO 4.03%
COc1ccc(NC(=O)Cn2c3ncccc3c(=O)n2-c2ccc(C)c(C)c2)c(OC)c1 -1.97%
CCOCCCNC(=O)C(c1ccc(OC)cc1)N(Cc1ccc2c(c1)OCO2)C(=O)c1ccc(NC(C)=O)cc1 (stereo not given) -15.4%
CCCCc1nn2c(=O)cc(COC(=O)c3ccc(NC(=O)c4ccccc4Cl)cc3)nc2s1 17.4%
Cc1nnc(NC(=O)CSc2nc3c([nH]c4ccccc43)c(=O)n2-c2ccc(Cl)cc2)s1 -21.2%
Cc1ccc2[nH]c(=O)c3cc(C(=O)N(C)c4ccc(Br)cc4)sc3c2c1 -23%
CC(=O)Nc1cc(C(=O)NCc2ccccc2Cl)ccc1Sc1ccc(F)cc1 -17.8%
Cc1cc(C)cc(NC(=O)c2cc(S(=O)(=O)NCCC3=CCCCC3)ccc2F)c1 -14.3%
Cc1ccc(NC(=O)c2cc(S(=O)(=O)N3CCCCC3)c[nH]2)cc1N(C)C 7.02%
Cc1cccc(C(=O)Nc2ccc3oc(-c4cccc5c(Br)cccc45)nc3c2)c1 -10.9%
CCOc1ccc2nc(N3CCN(C(=O)c4ccc5c(c4)CCCC5)CC3)sc2c1 -26.6%
COc1ccc2c(c1)CC(C(=O)NCc1ccc(F)cc1)CO2 (stereo not given) -14.5%
Cc1cc(OCC(=O)Nc2ccc(C(=O)OC3CCCCC3)cc2)cc(C)c1Cl -12.2%
COc1ccc(CCNCc2c(C(=O)O)c(C)n(Cc3c(F)cccc3Cl)c2C)cc1OC -11.5%
Cc1ccc2c(c1)C(=O)OC(C(=O)Nc1ncc(Cc3ccccc3Cl)s1)C2 (stereo not given) -6.9%
Cc1ccc(-c2cc(-c3ccc4c(c3)NC(=O)CO4)nc3c2COc2ccccc2-3)cc1 -3.41%
COc1ccc2c(c1)c1c(c(=O)n(-c3ccc(F)c(Cl)c3)c(=O)n1Cc1cccc(C)c1)n2C 5.55%
CCOc1ccc2c(c1)c(=O)c(C(=O)c1ccccc1)cn2Cc1ccccc1 -23.3%
Cc1ccc(C(=O)Nc2c(C(=O)NC(C)(C)C)oc3ccccc23)cc1 -13.8%
CCOC(=O)c1ccc(NC(=O)CSc2c(C(C)C)cnc3c2c(=O)n(C)c(=O)n3C)cc1 -9.02%
Cc1cc(C)c2c(CC(=O)Nc3ccc(F)cc3)coc2c1 -28%
Cc1ccc(-n2nc(C)c3nc(CCC(=O)Nc4cccc(C)c4C)c(=O)n(C)c32)cc1 -13.4%
COc1ccc(CNC(=O)Cn2nc3c(cc2=O)CCCC3)cc1 2.36%
Cc1cccc(N2C(=O)N(Cc3cc(=O)n4ccccc4n3)c3ccccc3S2(=O)=O)c1 -15.3%
COC(=O)c1nc2n(n1)C(c1cccc(Cl)c1)C(C(=O)Nc1ccccc1OC)=C(C)N2 (stereo not given) -9.43%
Cc1c2cnn(-c3ccccc3)c(=O)c2c(C)n1CCCC(=O)Nc1cc(F)ccc1F -8.33%
Cc1cccc(C)c1NC(=O)C(NS(=O)(=O)c1ccc2c(c1)CCC(=O)N2)c1ccccc1 (stereo not given) -9.77%
O=C(CSc1nc2ccccc2nc1Cc1ccc(Cl)cc1)N1CCc2ccccc21 2.45%
Cc1ccc(-c2nc(C)c(CCNC(=O)c3ccco3)s2)cc1 9.7%
CCc1ccc(CNC(=O)CN2C(=O)c3cccnc3Oc3ccc(Cl)cc32)cc1 -6.81%
CCN(c1cccc(C)c1)S(=O)(=O)c1nnc(NC(=O)C2CCCCC2)s1 -5.27%
